{"source": "PubChem BioAssay AID2675", "about": "(National Center for Advancing Translational Sciences (NCATS), 2010)", "note": "The campaign covered roughly 280,000 compounds. About 100 (0.036%) were called active. Inconclusive means that the source gave no clear call. Such entries were picked first, then a sample of the others. Calls come from the whole dose curve; as a rule, active = well fitted inhibition curve with a large enough effect in the signal ratio, with a control signal flat (not every such curve was filed as active); inconclusive = small, poorly fitted or top-dose-only effect, or effect the other way, or a change in a side signal; inactive = no such curve, though single readings can be large or run the other way; the % refers to the signal ratio. Potencies beside an inconclusive call are fits to weak or partial responses and may not hold up. A note “side channel” means that the fit belongs to a control or component signal, not to the main read-out. Potency is the fitted concentration of half-maximal effect; tags give direction and shape of the fitted curve or compound fluorescence and quenching.", "data": [{"biological_target": "Muscleblind-like protein 1 (Homo sapiens) (UniProt Q9NR56)", "sequence (Q9NR56 whole entry, looked up)": "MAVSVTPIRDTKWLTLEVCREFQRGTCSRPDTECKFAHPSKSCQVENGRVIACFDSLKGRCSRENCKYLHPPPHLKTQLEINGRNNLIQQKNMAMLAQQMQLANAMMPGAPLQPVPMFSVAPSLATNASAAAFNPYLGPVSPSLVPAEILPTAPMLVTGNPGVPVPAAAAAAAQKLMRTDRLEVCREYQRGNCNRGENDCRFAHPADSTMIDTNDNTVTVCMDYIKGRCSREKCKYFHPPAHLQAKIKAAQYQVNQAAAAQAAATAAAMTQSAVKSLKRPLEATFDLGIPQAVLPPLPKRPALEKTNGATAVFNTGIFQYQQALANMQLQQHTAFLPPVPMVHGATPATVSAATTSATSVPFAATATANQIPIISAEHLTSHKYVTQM", "assay": "qHTS Assay for Inhibitors of MBNL1-poly(CUG) RNA binding", "conditions": "TR-FRET MBNL1-His/biotin-(CUG)12 binding, 665/545 ratio; series mostly up to 57.5 µM", "in_short": "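MBNL1-His + Biotin-(CUG)12, cpd titration 92 nM–58 uM; Tb anti-His Ab 0.055 ng/ul, SA-XL665 5 nM (final); 60 min RT; ratiometric 665/545 nm, Ex 340 nm; normalized to buffer and full-complex controls.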", "values": [{"smiles": "CCOC(=O)c1cnn(C)c1NC(=O)c1ccc([N+](=O)[O-])cc1", "Potency": "inconclusive: 14.1 µM [quencher, side channel, partial curve]"}, {"smiles": "Cc1ccc(C(=O)c2cc3c(cc2[N+](=O)[O-])OCCO3)cc1", "Potency": "inconclusive: 15.8 µM [quencher, partial curve]"}, {"smiles": "Cc1ccc(S(=O)(=O)N/N=C/c2c[nH]c3ccccc23)cc1", "Potency": "inconclusive: 22.4 µM [quencher, side channel, single point]"}, {"smiles": "CCN(CC(=O)NCc1cccs1)S(=O)(=O)c1ccc([N+](=O)[O-])cc1", "Potency": "inconclusive: 6.31 µM [quencher, side channel, partial curve]"}, {"smiles": "Cc1ccc(NC(=O)c2ccc([N+](=O)[O-])cc2)cc1S(=O)(=O)N(C)C", "Potency": "inconclusive: 3.55 µM [quencher, side channel, full curve]"}, {"smiles": "CC(=O)C1=C(C)NC(SCC(=O)c2ccc(F)cc2)=C(C#N)C1c1ccco1", "note": "(configuration not stated)", "Potency": "inconclusive: 22.4 µM [quencher, side channel, single point]"}, {"smiles": "CCOC(=O)/C(=C/c1c(C)n(C)c2ccc([N+](=O)[O-])cc12)C(C)=O", "Potency": "inconclusive: 39.8 µM [quencher, side channel, single point]"}, {"smiles": "Cc1onc(-c2ccccc2)c1C(=O)Nc1sc2c(c1C#N)CCC2", "Potency": "inactive"}, {"smiles": "COc1cc(C2C(C(=O)c3ccc(C)o3)=C(O)C(=O)N2c2cc(C)on2)ccc1O", "note": "(configuration not stated)", "Potency": "inconclusive: 31.6 µM [quencher, side channel, single point]"}, {"smiles": "CCC1CCc2sc(C(=O)O)cc2C1", "note": "(configuration not stated)", "Potency": "inactive"}, {"smiles": "Cc1c(NC(=O)c2cnn3c2NC(c2ccc(Br)cc2)CC3C(F)(F)F)c(=O)n(-c2ccccc2)n1C", "note": "(configuration not stated)", "Potency": "inconclusive: 7.94 µM [quencher, side channel, full curve, poor fit]"}, {"smiles": "CCC(=O)Nc1nnc(S(=O)(=O)N(C)c2cc(C)cc(C)c2)s1", "Potency": "inconclusive: 39.8 µM [quencher, side channel, single point]"}, {"smiles": "CCC(Cc1ccccc1)NC(=O)Cn1ncc2ccsc2c1=O", "note": "(configuration not stated)", "Potency": "inactive"}, {"smiles": "C=CCn1c(=NC(=O)c2cc(-c3cccs3)nc3ccccc23)sc2cc(S(N)(=O)=O)ccc21", "Potency": "inconclusive: 8.91 µM [quencher, side channel, single point]"}, {"smiles": "CNc1nnc(-c2cc3cc(Cl)ccc3oc2=O)s1", "Potency": "inconclusive: 6.31 µM [quencher, side channel, partial curve]"}, {"smiles": "CCOC(=O)c1cccnc1SCC(=O)NC(C)CC", "note": "(configuration not stated)", "Potency": "inconclusive: 1.78 µM [quencher, side channel, partial curve]"}, {"smiles": "Nc1ccc2c(c1)C(=O)C(=O)c1ccccc1-2", "Potency": "inconclusive: 28.2 µM [quencher, side channel, partial curve]"}, {"smiles": "COc1ccc2c(CC(=O)NCCN3C(=O)S/C(=C\\c4cccnc4)C3=O)coc2c1", "Potency": "inconclusive: 7.94 µM [quencher, side channel, partial curve]"}, {"smiles": "COc1ccc([N+](=O)[O-])cc1NC(=O)C(C)OC(=O)c1ccccn1", "note": "(configuration not stated)", "Potency": "inconclusive: 25.1 µM [quencher, side channel, partial curve]"}, {"smiles": "O=S(=O)(c1ccc(Cl)cc1)N1CCN=C1SCc1ccc(Cl)c(Cl)c1", "Potency": "inconclusive: 1.78 µM [quencher, side channel, partial curve, poor fit]"}, {"smiles": "CCOC(=O)CC(=O)COc1nc2cc3c(nc2o1)CCCC3", "Potency": "inconclusive: 22.4 µM [quencher, side channel, single point]"}, {"smiles": "COc1cccc(OC)c1C(=O)NC(=S)NNC(=O)[C@H]1C[C@@H]1c1ccccc1", "Potency": "inconclusive: 39.8 µM [fluorescent, side channel, single point]"}, {"smiles": "COc1ccc(N(C(=O)c2snc(C(N)=O)c2N)C(C(=O)NCC2CCCO2)c2ccc3ncccc3c2)cc1OC", "note": "(configuration not stated)", "Potency": "inconclusive: 28.2 µM [quencher, side channel, single point]"}, {"smiles": "O=C(CCNS(=O)(=O)c1cccc2nsnc12)NCc1ccc(F)cc1", "Potency": "inconclusive: 7.94 µM [quencher, side channel, full curve]"}, {"smiles": "O=C(Nc1nnc(CCN2CCCCC2)s1)c1ccccc1Cl", "Potency": "inactive"}, {"smiles": "CC(O)CNc1ccc(-c2nn(C)c(=O)c3ccccc23)cc1[N+](=O)[O-]", "note": "(configuration not stated)", "Potency": "inconclusive: 5.01 µM [quencher, full curve]"}, {"smiles": "CC(=O)N(C1=C(N)C(=O)c2ccccc2C1=O)c1ccccc1", "Potency": "inconclusive: 12.6 µM [quencher, partial curve]"}, {"smiles": "COc1ccccc1-c1nnc(SC(C(=O)c2c[nH]c3ccccc23)c2ccccc2)n1C", "note": "(configuration not stated)", "Potency": "inactive"}, {"smiles": "O=C(NCCN1C(=O)S/C(=C\\c2cccnc2)C1=O)c1ccc(S(=O)(=O)N2CCCC2)cc1", "Potency": "inconclusive: 15.8 µM [quencher, side channel, partial curve]"}, {"smiles": "Cc1nn(-c2ccccn2)c2nc(-c3cccs3)cc(C(=O)NCc3ccco3)c12", "Potency": "inconclusive: 35.5 µM [quencher, side channel, single point]"}, {"smiles": "COc1ccc(C2CC(c3ccc(F)cc3)Nc3nc(N)nn32)cc1", "note": "(configuration not stated)", "Potency": "inconclusive: 3.16 µM [fluorescent, side channel, partial curve]"}, {"smiles": "CCN1CCN(C(=S)c2ccc([N+](=O)[O-])cc2)CC1", "Potency": "inconclusive: 31.6 µM [activator, single point]"}, {"smiles": "O=C(Cc1ccccc1)N/N=C/c1cc(Br)cc(Cl)c1O", "Potency": "inactive"}, {"smiles": "Cc1ccccc1NS(=O)(=O)c1cccc2nonc12", "Potency": "inconclusive: 25.1 µM [quencher, side channel, partial curve]"}, {"smiles": "CC(C)c1ccc(N2C=Nc3ccc(C(C)C)cc3C2)cc1", "Potency": "inactive"}, {"smiles": "Cc1nn(CC(=O)OCC(=O)Nc2ccccc2[N+](=O)[O-])c(C)c1[N+](=O)[O-]", "Potency": "inconclusive: 20 µM [quencher, side channel, partial curve]"}, {"smiles": "COc1ccc2c(c1)c(=O)oc1cc(OCC(=O)N3CCc4ccccc4C3)ccc12", "Potency": "inactive"}]}]}
